The source of these data is US12577273B2, “Small molecule modulators of gut bacterial bile acid metabolism” (priority 2019, dated 2026).

For one assay, the system named is C. perfingens. Format: cell-based, Clostridium perfringens ATCC 13124. Conditions: FIG. 2c, C. perfingens culture; 100 μM inhibitor, 100 μM bile acid pool, 21 h; replicates 1-3.
The test system of the next assay is B. fragilis. Kind of assay: Inhibitor screen in bacteria, B. fragilis culture. Format: cell-based, Bacteroides fragilis ATCC 25285. The settings on record: FIG. 2c, 100 μM inhibitor, 100 μM bile acid pool, 21 h, replicates 1-3. The method, then: (§1) Bacterial Culturing. All bacterial strains were cultured at 37° C. in Cullen-Haiser Gut (CHG) media (which consists of brain heart infusion media (Bacto™ BHI, BD) supplemented with 1% BBL vitamin K1-hemin solution (BD), 1% trace minerals solution (ATCC), 1% trace vitamins solution (ATCC), 5% fetal bovine serum (Hyclone), 1 g/L cellubiose, 1 g/L maltose, and 1 g/L fructose) or BHI^+ (Bacto™ BHI, BD, supplemented with 5 mg/L hemin, and 2.5 uL/L Vitamin K1). All strains were grown under anaerobic conditions in a anaerobic chamber (Coy Lab Products Airlock) with a gas mix of 5% hydrogen and 20% carbon dioxide nitrogen. Escherichia coli was grown aerobically at 37° C. in LB medium supplemented with ampicillin to select for the pET21b plasmid.
(§2) Inhibitor Screen in Bacteria. Bacterial cultures were diluted to OD600 of 0.1 in 4 mL BHI^+, containing 100 μM taurine conjugated bile acid pool 100 μM inhibitors. […] After 21 h, serial dilutions were plated on BHI^+ agar to determine cell viability (CFU/mL). […] The cultures were spun down in a centrifuge at 2,500 g for 5 mins to obtain better separation. The organic layer was then removed and the aqueous layer was extracted again using 2 mL of ethyl acetate.

Another assay relates to B. theta. Briefly: Inhibitor screen in bacteria, B. theta culture. Format: cell-based, Bacteroides thetaiotaomicron VPI-5482. The settings on record: FIG. 2c, 100 μM inhibitor, 100 μM bile acid pool, 21 h, replicates 1-3. The method, then:
as §1, §2

Structures are written as SMILES. Several values for one entry are separate records, joined by “and”; a condition that tells them apart may be missing. Equal values may be shown once.

Turning to `C[C@H](CCC(=O)CF)[C@H]1CC[C@H]2[C@@H]3[C@H](O)C[C@@H]4C[C@H](O)CC[C@]4(C)[C@H]3CC[C@]12C` [Compound 7], in the assay on C. perfingens, the “% deconjugation of TCA” value was 19.18% and 14.04% and 7.40%; the “% deconjugation of TDCA” value was 78.88% and 69.68% and 54.57%; the “% deconjugation of TUDCA” value was 9.84% and 18.06% and 15.54%; the “% deconjugation of TβMCA” value is 7.40% and 4.72% and 4.84%. For the same compound, in the assay on B. fragilis, the “% deconjugation of TCA” value is 1.14% and 1.51% and 1.11%; the “% deconjugation of TDCA” value was 9.74% and 8.92% and 5.67%; the “% deconjugation of TUDCA” value was 6.33% and 10.78% and 9.04%; the “% deconjugation of TβMCA” value is 4.96% and 4.15% and 2.69%. Besides, the “% deconjugation of TβMCA” value with B. theta is 0.63% and 0.17% and 0.00%.
